Laboratory results taken from publication PMC12136788.
Some of the results follow.

B1: 98611824_98611944_5957_CDS_ENSMUSG00000028556_ENSMUST00000030286|mouse|control|control (ssRNA)
RNA: GGGAGUUCUACAGUCCGACGAUCUUUGUGAGUGACAUUGACUCUUGUUUUAAUGUAAGGAAAGGCAUGAGACGUUGUCAGAAUGGUCUUCCGUUUGAAUUGUUCAUGAAGCUCCCCAUGAGCACGGCCAUCUAAAGUGAAGGGCAACAGAGGAUUGAGCAUCA
B2: chr16:94664741:94664742:+_ENSMUSG00000040785_ENSMUST00000117648|mus_hu|mus_mus_mus_hu_False|58_78 (ssRNA)
RNA: GGGAGUUCUACAGUCCGACGAUCUGGUACUGAUCUUGGUAGCUGAUAUUCAGGAGAAAUGUUGGCCAAGGGUGUAUAAAUGCUAGUGUACUGGGGCAAACCUGGUAACACGUUUAUGUAUGCUGGCGGUGUCUGGGUGAUAUCCAACAGAGGAUUGAGCAUCA
B3: 168329706_168329826_1012_CDS_ENSMUSG00000040596_ENSMUST00000169324|mouse|control|control (ssRNA)
RNA: GGGAGUUCUACAGUCCGACGAUCCCUUCUCAUCAUUCUUCGACACCAGCCCAGACUUGCCUUGAACCCUUUCUCUGGAAUGUUCAUUUCCUGGGCGAUUUCAAGAGCUUUCAACUGCAUUGCCUCCCUAGUGAUAGGGUCCCCCAACAGAGGAUUGAGCAUCA
B4: 79948201_79948321_2510_3pUTR_ENSMUSG00000022415_ENSMUST00000009727|mouse|control|control (ssRNA)
RNA: GGGAGUUCUACAGUCCGACGAUCCUGCUCAAGAGGAGCUGCGGGGCUGCUUCUAGGCCUCUGACACCCUUGUCCCCUCCCUGACUCUUCCUCAGGCCCGUGCUCACGCAACGUUUCCCACCGUAAUGGACCCUGUGCCUGUAUCAACAGAGGAUUGAGCAUCA
B5: chr9:98468509:98468510:+_ENSMUSG00000032458_ENSMUST00000035033|mus_hu|FALSE|FALSE (ssRNA)
RNA: GGGAGUUCUACAGUCCGACGAUCAAUGUCUUCACCAGUGUCUGUGUUUCAUGAUUCCAAACACACACACUGCCAUUGUAAAGACUUGCCAACAUCCAUGGCUCUGUAGGAUGCAGAUCCACACUCUUAACUCGAUCAGAUCUACAACAGAGGAUUGAGCAUCA
B6: chr12:57883053:57883054:+_ENSG00000166986_ENST00000262027|hu_mus|FALSE|FALSE (ssRNA)
RNA: GGGAGUUCUACAGUCCGACGAUCGGUGAGAUCAUCUUGUUCCCAGCCACAUAACAGAAAAAAAUAUCGGCAGAUUGCACUAGCAGAGAAGAGGUAGUUGCCACUAUCCAGCUGCAAGACAGGGACCUUAGGCCGGGUAAGGAACAACAGAGGAUUGAGCAUCA

target: T1, UNK ZnF1-3 (human, UniProt Q9C0B0 31-174); experiment: nsRBNS (natural sequence RNA bind-n-seq); RBNS binding buffer (assumed for nsRBNS): 25 mM Tris pH 7.5, 150 mM KCl, 3 mM MgCl2, 0.01% Triton X-100, 500 ug/ml BSA, 20 U/ml SUPERase-In, 4 C; UNK is unkempt and MSI1 is Musashi-1; names of the RNAs are library labels; protein concentration not given here; high values mean tight binding
T1 sequence: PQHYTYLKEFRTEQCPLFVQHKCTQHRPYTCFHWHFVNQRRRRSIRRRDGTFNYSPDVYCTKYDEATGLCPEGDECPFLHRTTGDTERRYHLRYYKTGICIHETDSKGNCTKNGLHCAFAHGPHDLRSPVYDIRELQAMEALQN

Binder | binding signal
B1 | 1 enrichment R
B2 | 0.909 enrichment R
B3 | 0.852 enrichment R
B4 | 0.892 enrichment R
B5 | 0.271 enrichment R
B6 | 2.18 enrichment R
